For this assay, the target named is T1, recombinant HSP70 (Heat Shock 70 kDa Protein) (human, UniProt P0DMV8).
T1 construct: also called HSP72; human HSP70
As to the kind of experiment: BLI (Octet Red), biotinylated TLR2 on streptavidin sensors, HSP70 in solution, 1:1 model global fit. The protocol:
Protein-protein interaction experiments were conducted at 25° C. in PBS with an Octet Red instrument (Forte Bio, Menlo Park, Calif., USA) by biolayer interferometry (BLI). The ligand (cmHSP70 or A8 or TLR2) was biotinylated using EZ-Link NHS-PEG₄-biotin (Thermo Fisher Scientific, Bonn, Germany) according to the manufacturer's protocol and immobilized at a concentration of 20 μg/ml on streptavidin sensors (ForteBio, Menlo Park, Calif., USA). These functionalized biosensors were dipped into black Greiner 96-well microplates agitated at […] and filled with a solution of 200 μL containing the analyte. All sensorgrams were corrected for baseline drift by subtracting a control sensor exposed to running buffer only. Each KD was determined with a 1:1 stoichiometry model using a global fit with Rmax unlinked by sensor (Forte Bio, Data analysis software version 7.1.0.89).
Protein-protein interaction experiments were conducted with an Octet Red instrument (ForteBio, USA). The ligand (A8 or TLR2) was biotinylated using EZ-Link NHS-PEG₄-biotin (2 nM, 30 min, RT, Thermo Fisher Scientific, Germany) and immobilized on streptavidin sensors (96-well plate black, ForteBio, USA). […] Each KD was determined with a 1:1 stoichiometry model using a global fit with Rmax unlinked by sensor (ForteBio, Data analysis software version 7.1.0.89).

B1: recombinant TLR2 (Toll-like receptor 2) (receptor)
chain: not shown
modifications: biotinylated with EZ-Link NHS-PEG4-biotin when immobilised on streptavidin sensors for BLI (site not stated)
notes: also called TRL2; CD282
As a reminder, the Kd is the concentration at which binding is half-saturated. Consider B1, for which the Kd amounted to 0.033 µM.

These data come from patent US20170131285A1 (INSERM INSTITUT NATIONAL DE LA SANTE ET DE LA RECHERCHE …, published 2017).
